# Reference: the supplement of paper PMC8728848
# The other results are listed elsewhere or left out.
# How the values were obtained:
# Test in all cases: glycan array binding signal (z-score within array); higher = stronger binding
# Details in all cases: glycan notation: IUPAC condensed, linker removed
# Gal(a1-2)Gal = target: Gal(a1-2)Gal
# Procedure, shortened: (§1)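 Glycan array binding is given as a within-array Z-score, which can be read as non-binding when negative. The arrays, 3228 of them, came from the Consortium for Functional Glycomics database and were retained only where the protein sequence was available. Z-scores were averaged across arrays of the same protein sequence at different concentrations or buffers and across linkers.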
# Gal(a1-3)Gal = target: Gal(a1-3)Gal
# Procedure, shortened: as §1
# Gal(a1-3)Gal(b1-3)GlcNAc = target: Gal(a1-3)Gal(b1-3)GlcNAc
# Procedure, shortened: as §1
# Gal(a1-3)Gal(b1-4)Glc = target: Gal(a1-3)Gal(b1-4)Glc
# Procedure, shortened: as §1
# Gal(a1-3)Gal(b1-4)GlcNAc = target: Gal(a1-3)Gal(b1-4)GlcNAc
# Procedure, shortened: as §1
# [1] = target: Gal(a1-3)Gal(b1-4)[Fuc(a1-3)]GlcNAc
# Procedure, shortened: as §1
# [2] = target: Gal(a1-3)Gal(b1-4)[Fuc(a1-3)]GlcNAc(b1-2)Man(a1-3)[Gal(a1-3)Gal(b1-4)[Fuc(a1-3)]GlcNAc(b1-2)Man(a1-6)]Man(b1-4)GlcNAc(b1-4)GlcNAc
# Procedure, shortened: as §1
# Gal(a1-3)GalNAc = target: Gal(a1-3)GalNAc
# Procedure, shortened: as §1
# [3] = target: Gal(a1-3)[Gal(a1-4)]Gal(b1-4)GlcNAc
# Procedure, shortened: as §1
# Gal(a1-4)Gal(b1-4)Glc = target: Gal(a1-4)Gal(b1-4)Glc
# Procedure, shortened: as §1
# Gal(a1-4)Gal(b1-4)GlcNAc = target: Gal(a1-4)Gal(b1-4)GlcNAc
# Procedure, shortened: as §1
# [4] = target: Gal(a1-4)Gal(b1-4)GlcNAc(b1-3)Gal(b1-4)Glc
# Procedure, shortened: as §1
# Gal(a1-4)GlcNAc = target: Gal(a1-4)GlcNAc
# Procedure, shortened: as §1
# Gal(a1-6)Glc = target: Gal(a1-6)Glc
# Procedure, shortened: as §1
# Gal(b1-2)Gal = target: Gal(b1-2)Gal
# Procedure, shortened: as §1
# Gal(b1-3)Gal = target: Gal(b1-3)Gal
# Procedure, shortened: as §1
# Gal(b1-3)Gal(b1-4)GlcNAc = target: Gal(b1-3)Gal(b1-4)GlcNAc
# Procedure, shortened: as §1
# [5] = target: Gal(b1-3)Gal(b1-4)GlcNAc(b1-2)Man(a1-3)[Gal(b1-3)Gal(b1-4)GlcNAc(b1-2)Man(a1-6)]Man(b1-4)GlcNAc(b1-4)GlcNAc
# Procedure, shortened: as §1
# Gal(b1-3)GalNAc = target: Gal(b1-3)GalNAc
# Procedure, shortened: as §1
# [6] = target: Gal(b1-3)GalNAc(a1-3)[Fuc(a1-2)]Gal(b1-4)Glc
# Procedure, shortened: as §1
# [7] = target: Gal(b1-3)GalNAc(a1-3)[Fuc(a1-2)]Gal(b1-4)GlcNAc
# Procedure, shortened: as §1
# [8] = target: Gal(b1-3)GalNAc(b1-3)Gal(a1-4)Gal(b1-4)Glc
# Procedure, shortened: as §1
# [9] = target: Gal(b1-3)GalNAc(b1-4)Gal(b1-4)Glc
# Procedure, shortened: as §1
# [10] = target: Gal(b1-3)GalNAc(b1-4)[Neu5Ac(a2-3)]Gal(b1-4)Glc
# Procedure, shortened: as §1
# Gal(b1-3)GlcNAc = target: Gal(b1-3)GlcNAc
# Procedure, shortened: as §1
# [11] = target: Gal(b1-3)GlcNAc(b1-2)Man(a1-3)[Gal(b1-3)GlcNAc(b1-2)Man(a1-6)]Man(b1-4)GlcNAc(b1-4)GlcNAc
# Procedure, shortened: as §1
# [12] = target: Gal(b1-3)GlcNAc(b1-2)Man(a1-3)[Gal(b1-3)GlcNAc(b1-2)Man(a1-6)]Man(b1-4)GlcNAc(b1-4)[Fuc(a1-6)]GlcNAc
# Procedure, shortened: as §1
# [13] = target: Gal(b1-3)GlcNAc(b1-3)Gal(b1-3)GlcNAc
# Procedure, shortened: as §1
# [14] = target: Gal(b1-3)GlcNAc(b1-3)Gal(b1-4)Glc
# Procedure, shortened: as §1
# [15] = target: Gal(b1-3)GlcNAc(b1-3)Gal(b1-4)GlcNAc
# Procedure, shortened: as §1
# [16] = target: Gal(b1-3)[Fuc(a1-4)]GlcNAc
# Procedure, shortened: as §1
# [17] = target: Gal(b1-3)[Fuc(a1-4)]GlcNAc(b1-2)Man(a1-3)[Gal(b1-3)[Fuc(a1-4)]GlcNAc(b1-2)Man(a1-6)]Man(b1-4)GlcNAc(b1-4)GlcNAc
# Procedure, shortened: as §1
# [18] = target: Gal(b1-3)[Fuc(a1-4)]GlcNAc(b1-2)Man(a1-3)[Gal(b1-3)[Fuc(a1-4)]GlcNAc(b1-2)Man(a1-6)]Man(b1-4)GlcNAc(b1-4)[Fuc(a1-6)]GlcNAc
# Procedure, shortened: as §1
# [19] = target: Gal(b1-3)[Fuc(a1-4)]GlcNAc(b1-3)Gal(b1-3)[Fuc(a1-4)]GlcNAc
# Procedure, shortened: as §1
# [20] = target: Gal(b1-3)[Fuc(a1-4)]GlcNAc(b1-3)Gal(b1-4)GlcNAc
# Procedure, shortened: as §1
# [21] = target: Gal(b1-3)[Fuc(a1-4)]GlcNAc(b1-3)Gal(b1-4)[Fuc(a1-3)]GlcNAc
# Procedure, shortened: as §1
# [22] = target: Gal(b1-3)[GlcNAc(b1-6)]GalNAc
# Procedure, shortened: as §1
binder,measurement,setting,value
"Ficolin B (Rattus norvegicus), P57756 (protein) MVLGSAALFVLSLCVTELTLHAADTCPEVKVLDLEGSNKLTILQGCPGLPGALGPKGEAGAKGDRGESGLPGHPGKAGPTGPKGDRGEKGVRGEKGDTGPSQSCATGPRTCKELLTRGYFLTGWYTIYLPDCRPLTVLCDMDTDGGGWTVFQRRIDGTVDFFRDWTSYKQGFGSQLGEFWLGNDNIHALTTQGTNELRVDLADFDGNHDFAKYSSFQIQGEAEKYKLILGNFLGGGAGDSLTSQNNMLFSTKDQDNDQGSSNCAVRYHGAWWYSDCHTSNLNGLYLRGLHKSYANGVNWKSWKGYNYSYKVSEMKVRLI",glycan array binding signal (z-score),Gal(a1-2)Gal,-0.184
same,glycan array binding signal (z-score),Gal(a1-3)Gal,-0.202
same,glycan array binding signal (z-score),Gal(a1-3)Gal(b1-3)GlcNAc,0.157
same,glycan array binding signal (z-score),Gal(a1-3)Gal(b1-4)Glc,0.072
same,glycan array binding signal (z-score),Gal(a1-3)Gal(b1-4)GlcNAc,-0.206
same,glycan array binding signal (z-score),[1],-0.224
same,glycan array binding signal (z-score),[2],-0.13
same,glycan array binding signal (z-score),Gal(a1-3)GalNAc,-0.188
same,glycan array binding signal (z-score),[3],-0.187
same,glycan array binding signal (z-score),Gal(a1-4)Gal(b1-4)Glc,-0.24
same,glycan array binding signal (z-score),Gal(a1-4)Gal(b1-4)GlcNAc,0.164
same,glycan array binding signal (z-score),[4],-0.169
same,glycan array binding signal (z-score),Gal(a1-4)GlcNAc,-0.202
same,glycan array binding signal (z-score),Gal(a1-6)Glc,-0.231
same,glycan array binding signal (z-score),Gal(b1-2)Gal,-0.123
same,glycan array binding signal (z-score),Gal(b1-3)Gal,-0.101
same,glycan array binding signal (z-score),Gal(b1-3)Gal(b1-4)GlcNAc,-0.18
same,glycan array binding signal (z-score),[5],-0.187
same,glycan array binding signal (z-score),Gal(b1-3)GalNAc,-0.164
same,glycan array binding signal (z-score),[6],-0.235
same,glycan array binding signal (z-score),[7],-0.215
same,glycan array binding signal (z-score),[8],-0.168
same,glycan array binding signal (z-score),[9],-0.207
same,glycan array binding signal (z-score),[10],-0.038
same,glycan array binding signal (z-score),Gal(b1-3)GlcNAc,-0.051
same,glycan array binding signal (z-score),[11],-0.194
same,glycan array binding signal (z-score),[12],-0.167
same,glycan array binding signal (z-score),[13],-0.118
same,glycan array binding signal (z-score),[14],-0.172
same,glycan array binding signal (z-score),[15],-0.224
same,glycan array binding signal (z-score),[16],-0.168
same,glycan array binding signal (z-score),[17],0.238
same,glycan array binding signal (z-score),[18],0.379
same,glycan array binding signal (z-score),[19],-0.084
same,glycan array binding signal (z-score),[20],-0.093
same,glycan array binding signal (z-score),[21],-0.222
same,glycan array binding signal (z-score),[22],-0.205
